# Source: PubChem BioAssay AID1631 (National Center for Advancing Translational Sciences (NCATS), 2009)
# Values joined by “and” are separate entries in the source; they are usually repeats but may differ in a detail not shown here. Identical values can stand only once. Screen size: about 260,000 compounds; about 890 (0.34%) were called active. Inconclusive means that the source gave no clear call. Such entries were picked first, then a sample of the others. The call rests on the fitted dose curve; in most records, active means well fitted activation curve with a large enough effect; inconclusive means small, poorly fitted or top-dose-only effect; inactive means no such curve, though single readings can be large or run the other way. Potencies of inconclusive entries are doubtful fits and often do not repeat.
# Biological target: Pyruvate kinase PKM (Homo sapiens) (UniProt P14618)
# Assay: qHTS Assay for Activators of Human Muscle isoform 2 Pyruvate Kinase; further: nearly all actives have a fitted effect of over 55% in size
# Details: purified PKM2, Kinase-Glo ATP luminescence; Potency: activation; activation: at 57.5 µM (top of the series), 0% is enzyme alone, no compound
# In short: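 ATP formation by purified human PK-M2, quantified via coupled luciferase luminescence after 1 h at room temperature with 0.1 mM ADP and 0.5 mM PEP final.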
# On the % scale 0 is the no-effect control and ±100 the full control effect; potency means the concentration at half of the fitted maximal effect; tags describe the fitted curve by direction and shape.
# UniProt P14618, sequence (P14618 whole entry, looked up, canonical isoform): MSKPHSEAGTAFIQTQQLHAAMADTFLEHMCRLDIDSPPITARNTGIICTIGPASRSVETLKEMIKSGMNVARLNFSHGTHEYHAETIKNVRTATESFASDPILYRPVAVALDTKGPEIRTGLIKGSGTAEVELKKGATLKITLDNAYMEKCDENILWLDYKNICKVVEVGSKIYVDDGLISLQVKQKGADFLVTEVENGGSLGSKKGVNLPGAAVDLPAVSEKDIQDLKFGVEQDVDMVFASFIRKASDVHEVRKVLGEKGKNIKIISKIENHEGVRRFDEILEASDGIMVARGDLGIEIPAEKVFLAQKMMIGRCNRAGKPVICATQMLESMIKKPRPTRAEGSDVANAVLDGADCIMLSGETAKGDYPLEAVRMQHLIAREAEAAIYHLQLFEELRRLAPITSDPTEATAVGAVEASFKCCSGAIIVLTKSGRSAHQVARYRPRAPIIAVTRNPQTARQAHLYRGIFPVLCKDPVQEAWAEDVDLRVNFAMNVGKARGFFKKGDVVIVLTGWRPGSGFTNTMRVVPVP
row,SMILES,Potency
1,CC(=O)c1cccc(NC(=O)c2sc(Cl)nc2C)c1,"inconclusive: 0.178 µM [rising, full curve, poor fit]"
2,CSc1c(-c2ccccn2)c(N)nn1C(=O)C1CCC1,"inconclusive: 39.8 µM [rising, single point]"
3,Cc1ccc(NC(=O)CN2C(=O)S/C(=C\c3ccc(-c4cccc(C(=O)O)c4C)o3)C2=O)cc1C,"inconclusive: 28.2 µM [rising, single point]"
4,CCc1nnc(NS(=O)(=O)c2ccc(NC(=O)OC)cc2)s1,active: 28.2 µM
5,O=C(CSc1nnnn1Cc1ccccc1)c1ccc(F)cc1,"inconclusive: 31.6 µM [rising, single point]"
6,CC(=O)C1=C(O)C(=O)N(Cc2cccnc2)C1c1ccc(O)cc1 (stereo not drawn),"inconclusive: 39.8 µM [rising, single point]"
7,CCN1C(=O)/C(=C/c2ccc(C)o2)N(C)C1=S,"inconclusive: 3.16 µM [rising, full curve]"
8,Cc1onc(-c2ccccc2Cl)c1C(=O)Nc1ccccc1,inactive
9,CC1=C/C(=N\NC(=S)NCc2ccccc2)CC1,inactive
10,O=C1NCCCc2c1oc1cc(Br)c(O)c(Br)c21,inactive
11,Cc1ccc(S(=O)(=O)CCSc2nc(C)cc(C(F)(F)F)c2C#N)cc1,"inconclusive: 3.16 µM [rising, single point]"
12,COC(=O)C1=CN(CC2CCCO2)C=C(C(=O)OC)C1c1cc(OC)c(OC)c(OC)c1 (stereo not drawn),"inconclusive: 8.91e-05 µM [rising, full curve, poor fit]"
13,Cc1ccc(-c2cc(-c3ccc(F)cc3)nc(N)c2C#N)o1,"inconclusive: 11.2 µM [rising, partial curve]"
14,C/C(=N\Nc1ccc([N+](=O)[O-])cc1[N+](=O)[O-])c1ccc(-n2nncc2C(C)(C)C)cc1,inactive
15,CC(=O)Oc1ccc(C(=O)[C@H]2[C@H]3C(=O)N(c4ccc(C)cc4)C(=O)[C@H]3[C@@H]3C=CC=NN32)cc1,"inconclusive: 31.6 µM [rising, single point]"
16,O=S(=O)(c1ccc(Cl)cc1)N1CCN(Cc2ccc(O)c3ncccc23)CC1,inactive
17,CN(C)/C(Cn1cncn1)=C1/N=C(c2ccccc2)OC1=O,"inconclusive: 22.4 µM [rising, partial curve, poor fit]"
18,Cc1ccc(S(=O)(=O)CC(=O)c2ccc([N+](=O)[O-])cc2)cc1,active: 22.4 µM
19,Cc1ccc(-c2nn(C)c(=O)c3ccccc23)cc1CNC(=O)c1ccco1,"inconclusive: 1 µM [rising, single point]"
20,C=CCn1c(SCC(=O)NCC2CCCO2)nc2scc(-c3ccco3)c2c1=O (stereo not drawn),"inconclusive: 3.55 µM [rising, full curve]"
21,COc1ccc(C)cc1S(=O)(=O)N(C)CC(=O)NC1CCCCCC1,"inconclusive: 3.98 µM [rising, single point]"
22,N#CC1=C(N)Oc2cc3ccccc3cc2C1c1cccnc1 (stereo not drawn),"inconclusive: 39.8 µM [rising, partial curve, poor fit]"

row,SMILES,Potency
1,Cc1nnc(NC(=O)CCSCCC(=O)Nc2nnc(C)s2)s1,"inconclusive: 28.2 µM [rising, single point]"
2,Cc1cc(NC(=O)CSc2nc3c(c(=O)n2Cc2ccccc2)SC(C)C3)no1 (stereo not drawn),"inconclusive: 8.91 µM [rising, full curve, poor fit]"
3,O=C1Nc2ccc(NS(=O)(=O)c3cccs3)c3cccc1c23,"inconclusive: 22.4 µM [rising, partial curve]"
4,Cc1ccccc1/C=C1\SC(=S)N(/N=C/c2cc([N+](=O)[O-])ccc2O)C1=O,inactive
5,CC1Cc2ccccc2N1c1ncnc2nc[nH]c12 (stereo not drawn),"inconclusive: 39.8 µM [rising, single point]"
6,Cc1ccc(-n2c(CCC(=O)O)ccc2-c2cccs2)cc1C,"inconclusive: 35.5 µM [rising, single point]"
7,CC1=C(C#N)C(=O)N(C2CCS(=O)(=O)C2)C(=O)/C1=C\c1ccc(C)o1 (stereo not drawn),"inconclusive: 28.2 µM [rising, partial curve]"
8,Cc1ccc(-c2nn(-c3ccccc3)cc2C(N)=O)o1,"inconclusive: 28.2 µM [rising, single point]"
9,CC(C)(C)C1CCC(=NNC(=S)NCc2ccccc2)CC1 (stereo not drawn),inactive
10,CNc1c([N+](=O)[O-])cnn1-c1ccccc1Cl,"inconclusive: 28.2 µM [rising, single point]"
11,COc1cccc(CNC(=S)NC2CCCC2)c1,"inconclusive: 35.5 µM [rising, single point]"
12,CC(=O)N1[C@H](Cc2ccccc2)C=C[C@]1(C)C(=O)NCc1ccc(C)o1,"inconclusive: 11.2 µM [rising, partial curve] and inconclusive: 12.6 µM [rising, partial curve]"
13,Nc1ccc(S(=O)(=O)c2ccc(N)c(N)c2)cc1,active: 28.2 µM
14,Cn1c(-c2ccc([N+](=O)[O-])cc2)nc2ccccc21,"inconclusive: 39.8 µM [rising, single point]"
15,Cn1c(=O)c(C(=O)COC(=O)c2cc(-c3ccco3)nc3ccccc23)c(N)n(Cc2ccccc2)c1=O,"inconclusive: 17.8 µM [rising, single point]"
16,CCOC(=O)c1c(N2C(=O)CC(Sc3ccccc3C(=O)O)C2=O)sc(C)c1C (stereo not drawn),"inconclusive: 22.4 µM [rising, single point]"
17,O=C(Nc1ccc(F)cc1)N(Cc1cccs1)Cc1cc2cc3c(cc2[nH]c1=O)OCO3,"inconclusive: 15.8 µM [rising, partial curve]"
18,CSc1ccc(CN2CCC(CO)(Cc3ccc(Cl)cc3)CC2)cc1,inactive
19,COc1cc(CN2CCNC(=O)C2CC(=O)N(C)Cc2ncc[nH]2)cc(OC)c1 (stereo not drawn),"inconclusive: 22.4 µM [rising, single point]"
20,Cn1cc(CN2CCN(c3cnccn3)CC2)c(-c2cccc(Cl)c2)n1,"inconclusive: 39.8 µM [rising, single point]"
21,O=C(Cn1c(=O)[nH]c2ccccc2c1=O)N1CCN(Cc2ccc3c(c2)OCO3)CC1,inactive
